Data reported in PMC4336329 (PLoS ONE, 2015).
The whole screen tested about 310,000 compounds, of which about 14,000 (4.5%) showed an effect of 50% or more. Effects have a minus sign here. Some of the results follow.

Biological target: human ether-à-go-go-related gene (hERG) potassium channel (human, UniProt Q12809)
Test: primary screen, population patch clamp on CHO cells stably expressing hERG
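Further: peak tail current of the secondary pulse compared with the same well before compound.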

Sequence of human ether-à-go-go-related gene (hERG) potassium channel (Q12809 whole entry, looked up): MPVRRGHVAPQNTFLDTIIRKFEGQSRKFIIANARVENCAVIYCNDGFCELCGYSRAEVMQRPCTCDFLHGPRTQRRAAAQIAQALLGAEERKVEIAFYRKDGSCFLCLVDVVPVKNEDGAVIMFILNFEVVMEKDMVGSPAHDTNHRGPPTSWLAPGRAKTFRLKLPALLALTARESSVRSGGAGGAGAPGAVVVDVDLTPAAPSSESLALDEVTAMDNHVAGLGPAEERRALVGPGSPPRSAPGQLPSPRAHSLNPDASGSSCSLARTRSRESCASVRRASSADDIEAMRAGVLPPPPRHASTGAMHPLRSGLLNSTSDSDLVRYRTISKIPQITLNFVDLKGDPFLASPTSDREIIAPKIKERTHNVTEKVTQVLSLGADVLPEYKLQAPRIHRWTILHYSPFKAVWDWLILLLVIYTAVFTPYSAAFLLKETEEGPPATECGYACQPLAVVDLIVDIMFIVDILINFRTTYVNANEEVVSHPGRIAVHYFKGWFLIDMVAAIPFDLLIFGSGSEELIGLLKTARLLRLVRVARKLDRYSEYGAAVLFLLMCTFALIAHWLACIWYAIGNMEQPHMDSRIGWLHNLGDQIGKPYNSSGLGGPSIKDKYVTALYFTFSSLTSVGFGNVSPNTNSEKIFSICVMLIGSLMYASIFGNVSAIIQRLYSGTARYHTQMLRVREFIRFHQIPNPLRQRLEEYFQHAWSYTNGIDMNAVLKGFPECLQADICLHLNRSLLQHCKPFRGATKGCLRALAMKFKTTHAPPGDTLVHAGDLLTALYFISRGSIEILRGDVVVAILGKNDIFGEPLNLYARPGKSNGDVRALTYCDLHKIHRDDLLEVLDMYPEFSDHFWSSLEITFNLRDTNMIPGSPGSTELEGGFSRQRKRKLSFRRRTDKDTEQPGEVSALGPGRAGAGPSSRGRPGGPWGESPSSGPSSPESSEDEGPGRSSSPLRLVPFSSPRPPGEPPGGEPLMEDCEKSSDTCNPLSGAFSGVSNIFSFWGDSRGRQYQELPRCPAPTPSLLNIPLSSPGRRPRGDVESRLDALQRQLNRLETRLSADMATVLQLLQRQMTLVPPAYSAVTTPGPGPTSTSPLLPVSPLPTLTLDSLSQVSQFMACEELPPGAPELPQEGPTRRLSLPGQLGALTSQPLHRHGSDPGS

Row | SMILES | hERG current change (%, negative = inhibition) at 10uM [%]
1 | Cc1ccc(C)c(NC(=O)CSc2nnc(-c3n[nH]c4ccccc34)o2)c1 | -17.5
2 | COc1ccc(C)cc1S(=O)(=O)Nc1cc2c3c(c1)CCN3C(=O)CC2 | -16.8
3 | C=CCCC(=O)N1CCC(n2nccc2NC(=O)c2ccc(OC)cc2)CC1 | -9.74
4 | CC1(C)CC(=O)C(C=Nc2ccc(N)cc2)=C(O)C1 | 7.79
5 | Cc1[nH]n(-c2ncc(-c3ccccc3)s2)c(=O)c1C(c1ccc(Br)cc1)C(C#N)C#N (stereo not drawn) | 18.1
6 | COc1ccc(OC)c(NC(=O)CCc2c[nH]c3ccccc23)c1 | 5.27
7 | Cc1cc(C)n(CC(=O)c2ccc(Br)cc2)c(=O)c1C#N | -18.9
8 | Cc1cccc(N/C(N)=N/c2nc(C)c(Cc3ccccc3)c(=O)[nH]2)c1 | 41.8
9 | CC1(c2ccccc2)NC(=O)N(CC(=O)Nc2cccc(/C=C/c3ccccn3)c2)C1=O (stereo not drawn) | -8.36
10 | CCCCCCCCOC(=O)C1=C(C)Nc2nnnn2C1c1cccs1 (stereo not drawn) | -0.187
11 | COc1cc(F)ccc1S(=O)(=O)n1c(C)nc2ccccc21 | -13.9
12 | NC(=O)c1ccccc1N/C=C/C(=O)c1cccs1 | -5.51
13 | COc1cc(C)c(CN2CCN(c3ncccn3)CC2)cc1C | -13.3
14 | CCOc1cc(C2C(C#N)=C(N)Oc3c2c(=O)oc2ccccc32)ccc1OC(=O)c1cccs1 (stereo not drawn) | 5.19
15 | Fc1ccc(NC(=S)N2CCN(c3ncccn3)CC2)cc1 | 19.4
16 | COC(=O)Cc1cnc(NC(=O)C2C3CCC(C3)C2C(=O)O)s1 (stereo not drawn) | -3.03
17 | Cc1ccc(C)c(N2CCN(CCCNC(=O)Cn3cc4c(n3)CCCCC4)CC2)c1 | -69.3
18 | COc1cc(C2C(C#N)=C(N)Oc3c2oc(CO)cc3=O)cc(OC)c1OC (stereo not drawn) | 12.9
19 | COCCn1c(C)cc(C(=O)COC(=O)c2cccc(O)c2)c1C | -12.1
20 | Cc1cccc(N2CCN(C(=O)N3CCCCC3)CC2)c1C | -7.94
21 | CCOC(=O)CSc1nnc(NC(=O)CN2CCN(C=O)CC2)s1 | 8.08
22 | Cc1ccccc1NP(=O)(c1ccccc1)c1nc2ccccc2s1 (stereo not drawn) | 8.67

Row | SMILES | hERG current change (%, negative = inhibition) at 10uM [%]
23 | COc1ccc(NS(=O)(=O)c2ccc(N3CCCC3)c(NC(=S)Nc3cccc(S(=O)(=O)N(C)C)c3)c2)cc1 | 18.1
24 | Cc1ccc(C)c(SCC(=O)OCC(=O)Nc2ncc(C(F)(F)F)cc2Cl)c1 | 17.6
25 | CN1CCN(c2ccc(NC(=S)NC(=O)c3cccc4ccccc34)cc2)CC1 | -51
26 | COc1ccc(-c2nc3ccccc3c(=O)n2CCc2ccc(O)cc2)cc1 | -25.4
27 | Cc1ccc(Cn2cnc3c(cnn3-c3ccc(F)cc3)c2=O)cc1 | 9.31
28 | COC(=O)CSc1ccc(C#N)c(SCC(=O)OC)c1 | 12.5
29 | CCC(Sc1ncnc2sc(C)c(C)c12)C(=O)OC (stereo not drawn) | -2.58
30 | CCCCN1/C(=C/c2cccc[n+]2C)Sc2cc(NC(C)=O)ccc21.[I-] | 16.9
31 | CC(C)Cc1ccc(CN2CCCC(NC(=O)c3ccnn3C)C2)cc1 (stereo not drawn) | -68.7
32 | COCCN(C(=O)COC(=O)Cc1c[nH]c2ccccc12)c1c(N)n(Cc2ccccc2)c(=O)[nH]c1=O | 16.6
33 | Cc1nc2nc(NC(=O)c3ccco3)[nH]n2c(=O)c1C | 7.23
34 | CC1CCC(C(C)C)C(OC(=O)COC(=O)c2cc(O)ccc2N)C1 (stereo not drawn) | 12.9
35 | Cc1nn(-c2ccccc2)c2c1C(=O)N(c1ccccc1)C(=O)C(C)(C)C2 | -21.1
36 | COc1ccccc1C(=O)NC(=O)COC(=O)CCNS(=O)(=O)c1ccccc1 | -29.8
37 | C=CCN(CC=C)C(=O)C1CCN(S(=O)(=O)c2ccc(-n3cnnn3)cc2)CC1 | -54.4
38 | Cc1ccsc1/C=N/n1c(COc2ccccc2)n[nH]c1=S | 11.7
39 | Cc1ncsc1C(=O)Nc1nc2c(s1)CCCC2 | 6.68
40 | O=C(CNC(=O)c1ccco1)OCc1cccc(Cl)c1 | -7.25
41 | O=C1C=C(c2cccc3c2sc2ccccc23)C[C@@H](c2ccc(F)cc2)C1 | 19.6
42 | Cc1ccc(C2=NS(=O)(=O)N(C)C(C(=O)N3CCOCC3)=C2)cc1 | -16.5
43 | COC(=O)CCn1c(C)cc(C(=O)COc2ccccc2C(N)=O)c1C | 8.27
44 | COc1ccccc1N1CCN(C(=O)c2noc(C)c2[N+](=O)[O-])CC1 | 21.8

Row | SMILES | hERG current change (%, negative = inhibition) at 10uM [%]
45 | O=C(O)c1cccc(NC(=O)C2C3C=CC(C3)C2C(=O)OCC(F)(F)C(F)F)c1 (stereo not drawn) | 11.5
46 | CC(=O)c1c(C)oc2ccc(NS(=O)(=O)c3ccc(C(=O)O)cc3)cc12 | 19.3
47 | Cc1cccn2c(=O)c(C=Nc3ccc(Cl)cc3)c(NCCO)nc12 | 7.51
48 | O=C(CN1C(=O)NC(Cc2ccccc2)C1=O)NC(=O)NC1CCCCC1 (stereo not drawn) | 7.31
49 | CCOc1ccccc1OCc1nn2c(-c3ccc(C)cc3)nnc2s1 | 6.13
50 | O=C(N/N=C/C(Br)=C/c1ccccc1)c1cnccn1 | -22.3
51 | Cc1cc(C)n(CC(O)COc2ccc(Cl)cc2)n1 (stereo not drawn) | 16.8
52 | CCC(=O)NC(Nc1cc(C)ccn1)(C(F)(F)F)C(F)(F)F | 12.7
53 | CCC(=O)NC(=S)Nc1ccc(S(=O)(=O)N2CCN(C)CC2)cc1 | -13.3
54 | CC(OC(=O)c1cccc(S(=O)(=O)Nc2cccc(C(F)(F)F)c2)c1)C(=O)Nc1ccc2c(c1)OCCO2 (stereo not drawn) | -4.41
55 | Cc1ccc(C)c(-c2cc(C(=O)NCc3cccs3)c3ccccc3n2)c1 | -1.31
56 | Cc1nn(C)c(=O)n1-c1ccc(Oc2ccccc2)cc1 | 14.4
57 | COc1ccc(CNC(=O)CCC(=O)N2C[C@H]3C[C@H](C2)c2cccc(=O)n2C3)cc1OC | 11
58 | O=C(Nc1ccc(CN2CCCCC2)cc1)c1sc2ccccc2c1Cl | -41.2
59 | N=c1c(S(=O)(=O)c2ccccc2)cc2c(=O)n3ccccc3nc2n1Cc1ccco1 | -18.9
60 | COc1ccc(C2=NCCc3cc(OC)c(OC)cc32)cc1OC | -23.6
61 | Cc1cc(=O)[nH]c(COc2ccccc2)n1 | 17.2
62 | Cc1cc(C)cc(-c2nnc(SCC(=O)c3ccc4c(c3)OCCO4)o2)c1 | 14.8
63 | C=CCOc1ccc(C2NC(=S)NC3=C2CCc2ccccc23)cc1 (stereo not drawn) | -18.2
64 | O=S(=O)(Nc1cccc(-c2cn3cccnc3n2)c1)c1ccc(Cl)cc1 | 16.4
65 | CC(C)(C)c1cc(C(=O)N/N=C/c2ccc(F)cc2)n(-c2ccccc2)n1 | -23.5
66 | COc1ccc(OCC(=O)N2CCN(C(=O)c3ccco3)CC2)cc1 | -32.3

Row | SMILES | hERG current change (%, negative = inhibition) at 10uM [%]
67 | CC1CC(=O)N(CC(=O)NCc2ccccc2)c2ccccc2S1(=O)=O (stereo not drawn) | 9.63
68 | Cc1[nH]n(-c2cccc3ccccc23)c(=O)c1C=Nc1ccc2[nH]c(=O)[nH]c2c1 | 6.05
69 | O=S(=O)(c1ccc(Cl)cc1)N1CCN2CCCC2C1 (stereo not drawn) | -6.01
70 | CCOC(=O)c1cc(C(=O)Nc2ccc(S(=O)(=O)Nc3ccc(OC)cc3)cc2)nn1C | 22.6
71 | Cc1ccc2c(c1)COc1c3ccc(C(=O)N4CCCCC4)cc3nn1-2 | 0.465
72 | O=C(CCN1C(=O)/C(=C/c2ccc(F)cc2)SC1=S)NNC(=O)c1cccnc1 | -3.44
73 | Cc1nn(C)c(N)c1-c1ccccc1 | 25.4
74 | O=C(C[n+]1ccc2ccccc2c1)c1ccccc1.[Br-] | -22.5
75 | O=C1/C(=C\c2ccc([N+](=O)[O-])cc2)CCc2ccccc21 | -6.6
76 | O=C1c2ccc3c4c(ccc(c24)C(=O)N1c1cccc(O)c1)CC3 | 4.49
77 | Cc1cc2c(cc1S(=O)(=O)N1CCN(c3cccc(C(F)(F)F)c3)CC1)OCC(=O)N2 | 14.8
78 | O=C(CC1C(=O)NCCN1Cc1ccccn1)NCCc1ccccc1F (stereo not drawn) | 3.14
79 | CCSc1nc2ccccc2n1C(=O)/C=C/c1ccc(OC)c(OC)c1 | 0.513
80 | Cc1ccc(S(=O)(=O)NCc2cccnc2)c(C)c1 | 12
81 | CN(Cc1c(C(=O)N/N=C/c2ccc(F)cc2)nnn1-c1nonc1N)C1CCCCC1 | 8.21
82 | CCN(C1CCCCC1)S(=O)(=O)c1cn(C)c(=O)n(C)c1=O | 4.78
83 | O=C(Nc1ccc(S(=O)(=O)C(F)F)cc1)c1ccc2c(=O)n3c(nc2c1)CCC3 | 24.1
84 | COc1cc(C(C(=O)NC2CCCC2)N(C(=O)Cc2cccs2)C2CC2)cc(OC)c1OC (stereo not drawn) | 13.6
85 | CCc1cccc(Oc2nn[nH]n2)c1 | -1.49
86 | COc1ccc(-c2nc(CS(=O)(=O)CC(=O)NCc3cccc(F)c3)c(C)o2)cc1 | 7.04
87 | Cc1cccc(C)c1NC(=O)C1(N2C(=O)CC2c2ccccc2)CCCCC1 (stereo not drawn) | 6.11
